Changes are numbered by the printed parent chain; changes in the protein carry UniProt numbers. The list shows a part of the results.
T1: RBFOX1 RRM RbFoxmut (Fox-RRM*) (Homo sapiens, UniProt Q9NWB1 109-208, R118D;E147R;N151S;E152T)
T1 sequence: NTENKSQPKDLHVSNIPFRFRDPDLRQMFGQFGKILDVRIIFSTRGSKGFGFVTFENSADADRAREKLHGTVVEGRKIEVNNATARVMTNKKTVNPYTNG

B1: AUUUUGU (DNA:RNA)
RNA: GGGAGACCGGAAUUCAGAUUGUCCAUUUUGUUUAAAUCCCGUCGUAGCCACCA
DNA 1: CAATCTGAATTCCGGTCTCCC
DNA 2: TGGTGGCTACGACGGGATT
B2: GAUUCCU (DNA:RNA)
RNA: B1 RNA with A25G, U26A, U29C, G30C
DNA 1: CAATCTGAATTCCGGTCTCCC
DNA 2: TGGTGGCTACGACGGGATT
B3: AACACGA (DNA:RNA)
RNA: B1 RNA with U26A, U27C, U28A, U29C, U31A
DNA 1: CAATCTGAATTCCGGTCTCCC
DNA 2: TGGTGGCTACGACGGGATT
B4: GAUCCCU (DNA:RNA)
RNA: B1 RNA with A25G, U26A, U28C, U29C, G30C
DNA 1: CAATCTGAATTCCGGTCTCCC
DNA 2: TGGTGGCTACGACGGGATT
B5: GCCAGUG (DNA:RNA)
RNA: GGGAGACCGGAAUUCAGAUUGUCCGCCAGUGUUAAAUCCCGUCGUAGCCACCA
DNA 1: CAATCTGAATTCCGGTCTCCC
DNA 2: TGGTGGCTACGACGGGATT
B6: UUUGGGA (DNA:RNA)
RNA: B1 RNA with A25U, U28G, U29G, U31A
DNA 1: CAATCTGAATTCCGGTCTCCC
DNA 2: TGGTGGCTACGACGGGATT
B7: UAUGACC (DNA:RNA)
RNA: B1 RNA with A25U, U26A, U28G, U29A, G30C, U31C
DNA 1: CAATCTGAATTCCGGTCTCCC
DNA 2: TGGTGGCTACGACGGGATT
B8: GACUGCG (DNA:RNA)
RNA: B5 RNA with C26A, A28U, U30C
DNA 1: CAATCTGAATTCCGGTCTCCC
DNA 2: TGGTGGCTACGACGGGATT
B9: CGGUGCC (DNA:RNA)
RNA: B1 RNA with A25C, U26G, U27G, U29G, G30C, U31C
DNA 1: CAATCTGAATTCCGGTCTCCC
DNA 2: TGGTGGCTACGACGGGATT
B10: GACCUGU (DNA:RNA)
RNA: B1 RNA with A25G, U26A, U27C, U28C
DNA 1: CAATCTGAATTCCGGTCTCCC
DNA 2: TGGTGGCTACGACGGGATT
B11: CGGGACG (DNA:RNA)
RNA: B5 RNA with G25C, C26G, C27G, A28G, G29A, U30C
DNA 1: CAATCTGAATTCCGGTCTCCC
DNA 2: TGGTGGCTACGACGGGATT
B12: UUGGGAU (DNA:RNA)
RNA: B1 RNA with A25U, U27G, U28G, U29G, G30A
DNA 1: CAATCTGAATTCCGGTCTCCC
DNA 2: TGGTGGCTACGACGGGATT
B13: CCAGUUA (DNA:RNA)
RNA: B5 RNA with G25C, C27A, A28G, G29U, G31A
DNA 1: CAATCTGAATTCCGGTCTCCC
DNA 2: TGGTGGCTACGACGGGATT
B14: UCGGCCG (DNA:RNA)
RNA: B5 RNA with G25U, C27G, A28G, G29C, U30C
DNA 1: CAATCTGAATTCCGGTCTCCC
DNA 2: TGGTGGCTACGACGGGATT
B15: UGUUCUA (DNA:RNA)
RNA: B1 RNA with A25U, U26G, U29C, G30U, U31A
DNA 1: CAATCTGAATTCCGGTCTCCC
DNA 2: TGGTGGCTACGACGGGATT
B16: UCAGGCC (DNA:RNA)
RNA: B5 RNA with G25U, C27A, A28G, U30C, G31C
DNA 1: CAATCTGAATTCCGGTCTCCC
DNA 2: TGGTGGCTACGACGGGATT
B17: GGGAACA (DNA:RNA)
RNA: B5 RNA with C26G, C27G, G29A, U30C, G31A
DNA 1: CAATCTGAATTCCGGTCTCCC
DNA 2: TGGTGGCTACGACGGGATT
B18: GGUUAAU (DNA:RNA)
RNA: B1 RNA with A25G, U26G, U29A, G30A
DNA 1: CAATCTGAATTCCGGTCTCCC
DNA 2: TGGTGGCTACGACGGGATT
B19: GUCAACU (DNA:RNA)
RNA: B5 RNA with C26U, G29A, U30C, G31U
DNA 1: CAATCTGAATTCCGGTCTCCC
DNA 2: TGGTGGCTACGACGGGATT
B20: UUUCGGA (DNA:RNA)
RNA: B1 RNA with A25U, U28C, U29G, U31A
DNA 1: CAATCTGAATTCCGGTCTCCC
DNA 2: TGGTGGCTACGACGGGATT

target: T1, RBFOX1 RRM RbFoxmut (Fox-RRM*); test: EMSA; HiTS-Eq, 1 nM pool, 10 min; buffer printed only for the single-RNA assays: 10 mM Tris pH 7.5, 150 mM NaCl, 3.4 mM EDTA, 0.001% NP-40, 30 C; details: tags: His6 N-terminal (pET28a); label: 5' 32P
In short: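 Purified wild-type or mutant RbFox RRM at increasing concentrations was equilibrated with 1 nM of 5′-radiolabelled RNA carrying 7 randomized nucleotides for 10 min in 50 µL. Unbound RNA was separated by 8% native PAGE and sequenced. Relative association constants came from read-count changes of each RNA species compared with the control reaction, normalised to the cognate motif.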

| Binder | binding signal |
| --- | --- |
| B1 | 0.147 KA relative to UGCAUGU |
| B2 | 0.0818 KA relative to UGCAUGU |
| B3 | 0.0643 KA relative to UGCAUGU |
| B4 | 0.0562 KA relative to UGCAUGU |
| B5 | 0.121 KA relative to UGCAUGU |
| B6 | 0.0591 KA relative to UGCAUGU |
| B7 | 0.0839 KA relative to UGCAUGU |
| B8 | 0.187 KA relative to UGCAUGU |
| B9 | 0.203 KA relative to UGCAUGU |
| B10 | 0.0919 KA relative to UGCAUGU |
| B11 | 0.108 KA relative to UGCAUGU |
| B12 | 0.0914 KA relative to UGCAUGU |
| B13 | 0.114 KA relative to UGCAUGU |
| B14 | 0.123 KA relative to UGCAUGU |
| B15 | 0.128 KA relative to UGCAUGU |
| B16 | 0.216 KA relative to UGCAUGU |
| B17 | 0.0769 KA relative to UGCAUGU |
| B18 | 0.0863 KA relative to UGCAUGU |
| B19 | 0.0718 KA relative to UGCAUGU |
| B20 | 0.0828 KA relative to UGCAUGU |

From PMC9911399, “Two distinct binding modes provide the RNA-binding protein RbFox with extraordinary sequence specificity”
